Data as given in the supplement of paper PMC8728848.
The other results are listed elsewhere or left out.

Columns and labels:
Assay in all cases: glycan array binding signal (z-score within array); higher = stronger binding
Settings in all cases: glycan notation: IUPAC condensed, linker removed
Gal(a1-4)Gal(b1-4)Glc = biological target: Gal(a1-4)Gal(b1-4)Glc
In short: (§1)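 Glycan array data came from 3228 arrays in the Consortium for Functional Glycomics database, and only arrays with an available protein sequence were kept. Glycan names were put into IUPAC-condensed notation, and columns mapping to the same glycan were averaged. The binding signal is a within-array Z-score, averaged across arrays of one protein sequence run at different concentrations or buffers and across linkers. A negative Z-score can be read as non-binding.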

Gal(a1-4)Gal(b1-4)GlcNAc = biological target: Gal(a1-4)Gal(b1-4)GlcNAc
In short: as §1

Gal(a1-4)GlcNAc = biological target: Gal(a1-4)GlcNAc
In short: as §1

Gal(a1-6)Glc = biological target: Gal(a1-6)Glc
In short: as §1

Gal(b1-2)Gal = biological target: Gal(b1-2)Gal
In short: as §1

Gal(b1-3)Gal = biological target: Gal(b1-3)Gal
In short: as §1

Gal(b1-3)GalNAc = biological target: Gal(b1-3)GalNAc
In short: as §1

[1] = biological target: Gal(b1-3)GalNAc(b1-3)Gal(a1-4)Gal(b1-4)Glc
In short: as §1

[2] = biological target: Gal(b1-3)GalNAc(b1-4)Gal(b1-4)Glc
In short: as §1

[3] = biological target: Gal(b1-3)GalNAc(b1-4)[Neu5Ac(a2-3)]Gal(b1-4)Glc
In short: as §1

Gal(b1-3)GlcNAc = biological target: Gal(b1-3)GlcNAc
In short: as §1

[4] = biological target: Gal(b1-3)GlcNAc(b1-3)Gal(b1-4)Glc
In short: as §1

[5] = biological target: Gal(b1-3)GlcNAc(b1-3)Gal(b1-4)GlcNAc
In short: as §1

[6] = biological target: Gal(b1-3)[Fuc(a1-4)]GlcNAc
In short: as §1

[7] = biological target: Gal(b1-3)[Fuc(a1-4)]GlcNAc(b1-3)Gal(b1-4)GlcNAc
In short: as §1

[8] = biological target: Gal(b1-3)[Fuc(a1-4)]GlcNAc(b1-3)Gal(b1-4)[Fuc(a1-3)]GlcNAc
In short: as §1

[9] = biological target: Gal(b1-3)[GlcNAc(b1-6)]GalNAc
In short: as §1

[10] = biological target: Gal(b1-3)[Neu5Ac(a2-6)]GalNAc
In short: as §1

[11] = biological target: Gal(b1-3)[Neu5Ac(a2-6)]GlcNAc(b1-6)Gal(b1-4)Glc
In short: as §1

[12] = biological target: Gal(b1-3)[Neu5Ac(b2-6)]GalNAc
In short: as §1

[13] = biological target: Gal(b1-4)GalNAc(a1-3)[Fuc(a1-2)]Gal(b1-4)GlcNAc
In short: as §1

[14] = biological target: Gal(b1-4)GalNAc(b1-3)[Fuc(a1-2)]Gal(b1-4)GlcNAc
In short: as §1

Gal(b1-4)Glc = biological target: Gal(b1-4)Glc
In short: as §1

Gal(b1-4)Glc6S = biological target: Gal(b1-4)Glc6S
In short: as §1

Gal(b1-4)GlcNAc = biological target: Gal(b1-4)GlcNAc
In short: as §1

[15] = biological target: Gal(b1-4)GlcNAc(b1-2)Man(a1-3)[Gal(b1-4)GlcNAc(b1-2)Man(a1-6)]Man(b1-4)GlcNAc(b1-4)GlcNAc
In short: as §1

[16] = biological target: Gal(b1-4)GlcNAc(b1-3)Gal(b1-4)Glc
In short: as §1

[17] = biological target: Gal(b1-4)GlcNAc(b1-3)Gal(b1-4)GlcNAc
In short: as §1

[18] = biological target: Gal(b1-4)GlcNAc(b1-3)Gal(b1-4)GlcNAc(b1-3)Gal(b1-4)GlcNAc
In short: as §1

[19] = biological target: Gal(b1-4)GlcNAc(b1-3)Gal(b1-4)[Fuc(a1-3)]GlcNAc(b1-3)Gal(b1-4)[Fuc(a1-3)]GlcNAc
In short: as §1

[20] = biological target: Gal(b1-4)GlcNAc(b1-3)GalNAc
In short: as §1

[21] = biological target: Gal(b1-4)GlcNAc(b1-3)[Gal(b1-4)GlcNAc(b1-6)]GalNAc
In short: as §1

[22] = biological target: Gal(b1-4)GlcNAc(b1-6)Gal(b1-4)GlcNAc(b1-6)GalNAc
In short: as §1

[23] = biological target: Gal(b1-4)GlcNAc(b1-6)GalNAc
In short: as §1

[24] = biological target: Gal(b1-4)GlcNAc(b1-6)[Gal(b1-3)]GalNAc
In short: as §1

Gal3S(b1-3)GalNAc = biological target: Gal3S(b1-3)GalNAc
In short: as §1

Gal3S(b1-3)GlcNAc = biological target: Gal3S(b1-3)GlcNAc
In short: as §1

[25] = biological target: Gal3S(b1-3)[Fuc(a1-4)]GlcNAc
In short: as §1

Gal3S(b1-4)Glc = biological target: Gal3S(b1-4)Glc
In short: as §1

Gal3S(b1-4)Glc6S = biological target: Gal3S(b1-4)Glc6S
In short: as §1

Gal3S(b1-4)GlcNAc = biological target: Gal3S(b1-4)GlcNAc
In short: as §1

Gal3S(b1-4)GlcNAc6S = biological target: Gal3S(b1-4)GlcNAc6S
In short: as §1

Gal3S6S(b1-4)GlcNAc = biological target: Gal3S6S(b1-4)GlcNAc
In short: as §1

Gal3S6S(b1-4)GlcNAc6S = biological target: Gal3S6S(b1-4)GlcNAc6S
In short: as §1

Gal4S(b1-4)GlcNAc = biological target: Gal4S(b1-4)GlcNAc
In short: as §1

B1: F4 (Escherichia coli), A0A6L9DDF0 (protein)
chain: MKKTLIALALAASAVSGMAHAWTSGDFNGTVDIGGSIDATNYRQKWEWEVGTGLNGFYNALSELTNNDTKLTITVTGNKPILLGRTKEAFVTPTAGGWGGIPQIAFTDYKGAPVELKNPDGETNKGLAYFVLPMKNADGTEAGSVRVNASYAGAVVEKTSDSSAKLFSAYAGEVIRIFNGGLPVNVTQSELQSGVAAADRTALFGSLGKADLVAQFQAVIPGATVTDGTSSEHCTMRLLASAAYALGIADGQTIEATFNQAVTTSTQWSAPLNVAITYY
**Q.** Which results are given for B1?
**A.** glycan array binding signal (z-score) (Gal(a1-4)Gal(b1-4)Glc): 0.033; glycan array binding signal (z-score) (Gal(a1-4)Gal(b1-4)GlcNAc): -0.203; glycan array binding signal (z-score) (Gal(a1-4)GlcNAc): -0.181; glycan array binding signal (z-score) (Gal(a1-6)Glc): -0.326; glycan array binding signal (z-score) (Gal(b1-2)Gal): -0.197; glycan array binding signal (z-score) (Gal(b1-3)Gal): -0.231; glycan array binding signal (z-score) (Gal(b1-3)GalNAc): -0.37; glycan array binding signal (z-score) [1]: -0.292; glycan array binding signal (z-score) [2]: -0.346; glycan array binding signal (z-score) [3]: -0.32; glycan array binding signal (z-score) (Gal(b1-3)GlcNAc): -0.207; glycan array binding signal (z-score) [4]: -0.278; glycan array binding signal (z-score) [5]: -0.228; glycan array binding signal (z-score) [6]: -0.26; glycan array binding signal (z-score) [7]: -0.232; glycan array binding signal (z-score) [8]: -0.374; glycan array binding signal (z-score) [9]: -0.148; glycan array binding signal (z-score) [10]: 0.11; glycan array binding signal (z-score) [11]: -0.384; glycan array binding signal (z-score) [12]: 0.121; glycan array binding signal (z-score) [13]: -0.334; glycan array binding signal (z-score) [14]: -0.334; glycan array binding signal (z-score) (Gal(b1-4)Glc): -0.253; glycan array binding signal (z-score) (Gal(b1-4)Glc6S): -0.209; glycan array binding signal (z-score) (Gal(b1-4)GlcNAc): -0.137; glycan array binding signal (z-score) [15]: -0.271; glycan array binding signal (z-score) [16]: -0.276; glycan array binding signal (z-score) [17]: -0.397; glycan array binding signal (z-score) [18]: -0.035; glycan array binding signal (z-score) [19]: -0.237; glycan array binding signal (z-score) [20]: -0.22; glycan array binding signal (z-score) [21]: -0.216; glycan array binding signal (z-score) [22]: -0.235; glycan array binding signal (z-score) [23]: -0.298; glycan array binding signal (z-score) [24]: -0.257; glycan array binding signal (z-score) (Gal3S(b1-3)GalNAc): -0.299; glycan array binding signal (z-score) (Gal3S(b1-3)GlcNAc): -0.103; glycan array binding signal (z-score) [25]: -0.02; glycan array binding signal (z-score) (Gal3S(b1-4)Glc): -0.308; glycan array binding signal (z-score) (Gal3S(b1-4)Glc6S): 0.081; glycan array binding signal (z-score) (Gal3S(b1-4)GlcNAc): -0.124; glycan array binding signal (z-score) (Gal3S(b1-4)GlcNAc6S): 0.114; glycan array binding signal (z-score) (Gal3S6S(b1-4)GlcNAc): -0.105; glycan array binding signal (z-score) (Gal3S6S(b1-4)GlcNAc6S): 0.447; glycan array binding signal (z-score) (Gal4S(b1-4)GlcNAc): -0.043
